Test results taken from the supplement of paper PMC10126150.
Values marked as one replicate rest on one cluster of the flow cell; about a third of the high ones do not repeat.

Test system: ATP
Experiment: switch fluorescence ratio, 500 uM ATP over buffer (Cy3 cluster intensity, sum of 5 cycles each) (fold (ratio)); higher = stronger signal-on switching upon ATP binding; sequences stand for … in TCGTCGGCAGCGTCAGATGTGTATAAGAGACAGTTTTTTTTTTTTTTTTTTTTTTTTT…TC
Conditions: aptamer strand: ATP DNA aptamer (quencher-CACCTGGGGGAGTATTGCGGAGGAAGG + anchor), 100 nM annealed; ATP concentration: 500 uM; one replicate
How it was run: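 Five buffer/ATP imaging cycles were run on Cy3-labelled switching-strand clusters on a modified Illumina MiSeq flow-cell, with NaOH stripping and re-annealing between cycles. In each cycle, clusters annealed to 100 nM quencher-labelled ATP aptamer were imaged in selection buffer, then after 15 min with 500 uM ATP at 22 °C. Per cluster, the fluorescence ratio is summed target-cycle over summed buffer-cycle Cy3 intensity, averaged per switch-domain sequence. Only clusters within 100-1000 RFU were kept.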
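Note: ATP exposure 15 min at 22 °C before imaging.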

ACGTGCCATG
switch fluorescence ratio: 0.967

GAGATCATCG
switch fluorescence ratio: 0.957

GATTACTCTT
switch fluorescence ratio: 1.07

GAAACCATTC
switch fluorescence ratio: 1.36

TAGCCACACA
switch fluorescence ratio: 1.02

TCCTACAGTT
switch fluorescence ratio: 1.02

CGGGCGAAGA
switch fluorescence ratio: 0.982

TATTCCCGAT
switch fluorescence ratio: 1.02

TGCCTTATAA
switch fluorescence ratio: 0.96

ACTTAATGGA
switch fluorescence ratio: 1.04

ATAAGTACAG
switch fluorescence ratio: 1.32

TAAGACTGC
switch fluorescence ratio: 1.03

ATGAGAAT
switch fluorescence ratio: 0.977

GCGGCTAAGG
switch fluorescence ratio: 0.985

AGACTATGTT
switch fluorescence ratio: 0.993

TCTTAATCGC
switch fluorescence ratio: 1

GTGGCCAAGG
switch fluorescence ratio: 1.04

AAGTTAAACG
switch fluorescence ratio: 1

GGACGCCGGA
switch fluorescence ratio: 1.03

CTGTTGACGT
switch fluorescence ratio: 0.975

TGTTTTACCT
switch fluorescence ratio: 0.997

TGGCCTTAGG
switch fluorescence ratio: 0.978

GGGGTCTAT
switch fluorescence ratio: 1.01

CGGTGATTCA
switch fluorescence ratio: 0.975

ATGGGTTAAG
switch fluorescence ratio: 1.02

CTTATGCATC
switch fluorescence ratio: 1.1

AAATTTTG
switch fluorescence ratio: 1.02

TACCCCGGTG
switch fluorescence ratio: 2.26

ACTTCATGAA
switch fluorescence ratio: 1.09

ACAGTCAT
switch fluorescence ratio: 0.989

TGGAGTGGTT
switch fluorescence ratio: 1.02

ACGCCTAGTT
switch fluorescence ratio: 1.02

ACATATGTTG
switch fluorescence ratio: 0.974

TCGAAACAGC
switch fluorescence ratio: 1.03

TTTTCCATA
switch fluorescence ratio: 1.02

AATAATCGAT
switch fluorescence ratio: 0.972

CAAGCGCAGT
switch fluorescence ratio: 1.18

GAGACATATA
switch fluorescence ratio: 1.01

TTCAAGAGCA
switch fluorescence ratio: 1.04

TGTGTTCGAG
switch fluorescence ratio: 0.969

GGGTTAGAGC
switch fluorescence ratio: 0.996

CCGACGAGAG
switch fluorescence ratio: 1.51

AAACTTCAAG
switch fluorescence ratio: 1

GCACCAAATT
switch fluorescence ratio: 1

CGCGATAGTC
switch fluorescence ratio: 3.03

CGAGAAGCG
switch fluorescence ratio: 0.994

CGACTCGGGC
switch fluorescence ratio: 1.06

TGCGGCTGAC
switch fluorescence ratio: 1.09

GCCCTACTCA
switch fluorescence ratio: 1.13

CTTAGTACCA
switch fluorescence ratio: 0.915

TTGCACGAGC
switch fluorescence ratio: 1.03

CCCCACTATC
switch fluorescence ratio: 1.77

TACGAGATTT
switch fluorescence ratio: 1.02

ACCTTCGAGT
switch fluorescence ratio: 1.14

TTTCTTGAAT
switch fluorescence ratio: 1.02

TCATGTGGGG
switch fluorescence ratio: 0.997

ATGAAAGACA
switch fluorescence ratio: 0.994

GCTGCTATGT
switch fluorescence ratio: 1.06

CCACTGAT
switch fluorescence ratio: 0.98

GGTAAGTGG
switch fluorescence ratio: 0.942

TGCCGGAG
switch fluorescence ratio: 1.02

CAAAGGAGAA
switch fluorescence ratio: 0.999

TGAGTTATCA
switch fluorescence ratio: 0.995

TCCCGAAGGG
switch fluorescence ratio: 1.01

TGCGGAACGT
switch fluorescence ratio: 1.04

CTGCCAATTT
switch fluorescence ratio: 2.49

GTGAAGGGAT
switch fluorescence ratio: 1.04

CTCTTGTATG
switch fluorescence ratio: 0.989

GGGGTTGAC
switch fluorescence ratio: 0.997

CAGCCGTAAA
switch fluorescence ratio: 1.08

TTTCCTCCTT
switch fluorescence ratio: 1.64

AAGGCTCTAA
switch fluorescence ratio: 1.01

CATAGGCTTG
switch fluorescence ratio: 0.973

TGGTGACGCA
switch fluorescence ratio: 1.12

CGCTATCAAA
switch fluorescence ratio: 1.04

AAGGTCATGA
switch fluorescence ratio: 0.977

TGGTGCATCG
switch fluorescence ratio: 0.985

AGTTAATGGC
switch fluorescence ratio: 1.04

GGAGATTCAA
switch fluorescence ratio: 1.01

AGGTCTCT
switch fluorescence ratio: 1

TTTAGCGTCC
switch fluorescence ratio: 1.01

GCCTGCAAGC
switch fluorescence ratio: 1.25

TTTGCACTAC
switch fluorescence ratio: 4.54

ATTCTATACT
switch fluorescence ratio: 1

TATGATTTCG
switch fluorescence ratio: 0.969
